# Screen size: about 43,000 compounds; about 200 (0.47%) were called active. About 12% were inconclusive and are not listed. Calls follow the shape of the dose curve; as a rule, active = well fitted cell-killing curve with a large enough effect; inconclusive = small, poorly fitted or top-dose-only effect, or effect the other way; inactive = flat fitted curve, though single readings scatter. The list shows a part of the results.
# Assay: Cell viability qHTS assay in S16 Pmp22-F2sN cells; also: nearly all actives have a fitted effect of over 65% in size
# Settings: S16 Pmp22-F2sN Schwann cells (luciferase reporters placed in the Pmp22 gene) viability, CellTiter-Glo, 24 h; series mostly up to 57.5 µM; activity change, negative = cytotoxicity: at the top concentration
# Outline: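 S16 Schwann cells carrying the Pmp22-F2sN reporter, seeded in 1536-well format, were exposed to library compounds for 24 h at 37C. Viability was read as CellTiter-Glo luminescence after 15 min at room temperature.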
# % is scaled to controls: 0 for no effect and ±100 for the full control effect; potency is read from the fitted curve at half-maximal effect.
SMILES,"activity change, negative = cytotoxicity",Potency
COc1ccc(-n2c(SCC(=O)NCc3ccccc3)nc3c([nH]c4ccccc43)c2=O)cc1,inactive: 0.0641%,
Cc1ccc(N(Cc2cccs2)C(=O)c2ccco2)cc1,inactive: 2.84%,
COc1cc(Nc2nc(SCC(=O)c3ccc(Cl)c(Cl)c3)nc3ccccc23)cc(OC)c1,inactive: -6.04%,
O=C(CCC1N=C2c3ccccc3N=C(SCC(=O)Nc3ccc(F)cc3)N2C1=O)NCc1ccco1 (stereo not given),inactive: -1.23%,
CC(C)N(C(=O)Cn1cc(S(=O)(=O)Cc2ccc(Cl)cc2)c2ccccc21)C(C)C,inactive: 9.63%,
COc1ccc(Nc2nn(-c3ccc(OC(F)(F)F)cc3)nc2C(C)=O)cc1,inactive: -0.976%,
Cc1cc(C(=O)NCc2ccccc2)c2c(C)nn(-c3cccc(F)c3)c2n1,inactive: -14.5%,
COc1ccc(NC(=O)CC2Nc3ccccc3NC2=O)cc1 (stereo not given),inactive: 24.4%,
CCOc1ccc(NC(=O)c2ccc3c(SCC(=O)O)c4c(nc3c2)CCCC4)cc1,inactive: -2.37%,
Cc1ccc(C(=O)N2CCc3cc(CNS(=O)(=O)c4ccc(Cl)s4)ccc32)cc1,inactive: 16.6%,
Cc1ccc(C)c(N2CCN(C(=O)C3CCN(c4nc(-c5ccc(C(C)C)cc5)no4)CC3)CC2)c1,inactive: -19.5%,
CC(C(=O)Nc1cccc(C#N)c1)n1nc(-c2ccccc2)c2c(c1=O)CCCC2 (stereo not given),inactive: -2.23%,
Fc1ccc(-c2nc(Nc3ccc(F)c(Cl)c3)nc3c2COc2ccccc2-3)cc1,inactive: -0.459%,
CCOc1ccc(C2CC(=O)n3nc(-c4ccc(C)cc4)nc3S2)cc1OC (stereo not given),inactive: -1.71%,
CC1=C(C(=O)Nc2ccc(C)cc2C)C(c2ccccc2[N+](=O)[O-])n2ncc(C(=O)Nc3ccccc3)c2N1 (stereo not given),inactive: -23%,
CCOC(=O)C1CCCN(C(=O)c2ccc3c(c2)N(Cc2ccccc2)C(=O)c2ccccc2S3(=O)=O)C1 (stereo not given),inactive: -3.4%,
O=C(Nc1ccc(NC(=O)c2cc3ccccc3o2)cc1)c1ccccc1,inactive: 8.21%,
Cn1cc(S(=O)(=O)c2ccc(Cl)cc2)c(=O)c2cc(F)c(N3CCCCCC3)cc21,inactive: -2.79%,
O=C(CN1CCN(S(=O)(=O)c2cc(Cl)ccc2Cl)CC1)Nc1cccc(F)c1,inactive: 1.76%,
COc1ccccc1N1CCN(C(=O)c2ccc(CS(=O)c3ccccc3C)o2)CC1 (stereo not given),inactive: -1.96%,
COc1ccc(CCN2C(=O)c3oc4cc(C)cc(C)c4c(=O)c3C2c2ccc(F)cc2)cc1OC (stereo not given),inactive: -0.308%,
O=C(NC1CC1)c1ccc(Cn2c(SCc3cccc(F)c3)nc3cccnc32)cc1,inactive: -11.2%,
O=C(NCC(c1cccnc1)N1CCc2ccccc2C1)c1ccc(F)c(F)c1 (stereo not given),inactive: -13%,
CCC(CC)C(=O)Nc1ccc(OCc2cc(=O)n3c4c(sc3n2)CCCC4)cc1,inactive: -3.03%,

SMILES,"activity change, negative = cytotoxicity",Potency
CCS(=O)(=O)N1CCc2cc(C(=O)NCc3ccc(OC)cc3)ccc21,inactive: 20.6%,
Cn1cc(S(=O)(=O)c2cccc(Cl)c2)c(=O)c2cc(F)c(N3CCCCCC3)cc21,inactive: 2.78%,
CC(=O)N1CCc2cc(CNS(=O)(=O)c3ccc(F)cc3)ccc21,inactive: 4.04%,
CCc1ccc(-c2cn3c(n2)sc2cc(C(=O)NC4CCCCCC4)ccc23)cc1,inactive: 11.6%,
O=C(NCc1cccc(Cl)c1)c1cc2c(s1)-c1ccccc1OC2,inactive: -5.54%,
CCc1c(C)sc2c1CCN(Cc1cccc(F)c1)C2c1ccccc1 (stereo not given),,active: 10 µM
COc1ccc(Cl)cc1Nc1sc(C(=O)c2ccccc2)c(N)c1C(=O)Nc1ccccc1,inactive: -0.776%,
Cc1ccc(NC2=C(c3ccc(C(F)(F)F)cc3)C(=O)c3ccccc32)cc1C,inactive: -1.07%,
CC(=O)Nc1ccc(C(=O)CSc2nnc(-c3ccccc3)n2-c2ccccc2)cc1,inactive: 18%,
Cc1ccc(-c2cc(C(=O)NCc3cnn(C)c3C)c3cc(Br)ccc3n2)cc1,inactive: 13.8%,
Cc1ccc(S(=O)(=O)c2nc(-c3ccccc3F)oc2N2CCCCC2)cc1,inactive: -2.01%,
COCCc1nn2c(=O)cc(COC(=O)c3ccc4c(c3)OCO4)nc2s1,inactive: -5.34%,
Cc1cccc(-c2nc(S(=O)(=O)c3ccc(F)cc3)c(N3CCN(c4ccccc4)CC3)o2)c1,inactive: 10.1%,
Cc1ccc(CCNC(=O)c2ccc3c(c2)N(Cc2cccc(C)c2)C(=O)c2ccccc2S3(=O)=O)cc1,inactive: 9.03%,
CC(C)c1ccc(NC(=O)c2cc3c(s2)-c2ccccc2SC3)cc1,inactive: -14.1%,
CCOC(=O)c1c(C)[nH]c(CCC(=O)NCCCN2CCN(c3ccc(F)cc3)CC2)c1C,inactive: -6.29%,
CCOC(=O)c1ccccc1NC(=O)Cn1cc(C(=O)c2cccc(OC)c2)c(=O)c2ccc(C)nc21,inactive: 7.23%,
CCc1ccc(N=C2NC(=O)CC(C(=O)Nc3ccc(OC)cc3)S2)cc1 (stereo not given),inactive: 15.9%,
COc1cc2c(cc1OC)C(COc1ccccc1OC)N(C(=O)CC(C)C)CC2 (stereo not given),inactive: -4.34%,
Cc1cc(=O)[nH]c2nnc(SCC(=O)NC(C)(C)C)n12,inactive: 1.41%,
O=C(CN1C(=O)COc2ccc(S(=O)(=O)N3CCCCCC3)cc21)NCc1ccc(Cl)cc1,inactive: -3.62%,
COc1ccc(OC)c(NC(=O)Cc2coc3ccc(C(C)C)cc23)c1,inactive: 4.2%,
CCOC(=O)c1[nH]c(C)c(CCC(=O)NCc2ccccc2)c1C,inactive: -12.2%,
CCOC(=O)c1c(-c2ccccc2)oc2ccc(N(C(C)=O)S(=O)(=O)c3cc(C)ccc3C)cc12,inactive: -7.66%,

SMILES,"activity change, negative = cytotoxicity",Potency
CC(=O)N1CCOc2cc(S(=O)(=O)Nc3cccc(C(F)(F)F)c3)c(Cl)cc21,inactive: -18.1%,
CCOC(=O)c1ccccc1NC(=O)C(=O)Nc1ccc2nc3n(c(=O)c2c1)CCCCC3,inactive: 7.98%,
CCc1cccc(-n2c(C)nc3c(cnn3-c3ccc(Cl)cc3)c2=O)c1,inactive: 1.62%,
COc1ccc(NC(=O)C2CCN(S(=O)(=O)c3ccc4[nH]c(=O)ccc4c3)CC2)c(OC)c1,inactive: -1.15%,
Cc1cn2c(=O)cc(COc3cccc(NC(=O)c4ccccc4C)c3)nc2s1,inactive: 0.562%,
CCOc1ccc(CNC(=O)C2CCN(c3nnc(-n4cccc4CNc4ccc(C)cc4)s3)CC2)cc1OC,inactive: 0.162%,
CCc1c(C)nc(SCC(=O)N2CCN(c3ccccc3OC)CC2)[nH]c1=O,inactive: 21.4%,
CCCCSCCCNC(=O)CN1C(=O)c2cccnc2Oc2ccc(Cl)cc21,inactive: 3.67%,
CCOc1ccc(-c2nonc2NC(=O)c2oc3cc(C)ccc3c2C)cc1,inactive: 3.23%,
COc1ccc(OC)c(NC(=O)c2cc3c(=O)oc4ccccc4c3s2)c1,inactive: -0.751%,
Cc1ccc(C)c(NC(=O)c2ccc3c(O)c(S(=O)(=O)c4ccc(Cl)cc4)c(=O)[nH]c3c2)c1,inactive: 4.41%,
Cc1cc2c(cc1S(=O)(=O)NCc1ccccc1Cl)OCCN2C,inactive: 3.71%,
Fc1ccc(-c2noc3ncnc(N4CCN(c5ccccc5)CC4)c23)cc1,inactive: -7%,
COc1ccc(S(=O)(=O)N2CCN(c3ccccc3F)CC2)cc1-c1noc(C)n1,inactive: 10%,
O=C(NCc1ccc(F)cc1)c1ccc2c(Cl)c3c(nc2c1)CCCC3,inactive: 1.21%,
Cc1ccc(NC(=O)c2cnn3c(C(F)F)cc(-c4ccccc4)nc23)c(C)c1,inactive: 7.24%,
COc1ccc(OC)c(NC(=O)C2CCCN(S(=O)(=O)c3c(C)nn(C)c3C)C2)c1 (stereo not given),inactive: 7.35%,
Cc1ccc(NC(=O)Nc2nnc(N(CC(C)C)CC(C)C)s2)cc1Cl,inactive: 1.8%,
CCOC(=O)c1ccc(NC(=O)CCCc2nc(-c3ccccc3Cl)no2)cc1,inactive: 2.98%,
CCOc1ccc(-c2cc(NC(=O)Nc3cccc(C(C)=O)c3)c(C(=O)OC)s2)cc1,inactive: -0.288%,
COc1ccc(NC(=O)C2=C(C)Nc3ncnn3C2c2ccc(O)cc2)cc1 (stereo not given),inactive: 3.81%,
CCc1ccc(CNC(=O)Cc2ccc(NC(=O)N3CCSc4ncccc43)cc2)cc1,inactive: 2.14%,
COc1cccc(N2CCN(C(=O)C(CCSC)NS(=O)(=O)c3ccc4c(c3)oc(=O)n4C)CC2)c1 (stereo not given),inactive: -4.13%,
CCOC(=O)CSc1nc2ccc(NC(=O)c3ccc(C)cc3)cc2s1,inactive: 3.82%,

SMILES,"activity change, negative = cytotoxicity",Potency
O=C(O)c1ccc2c(c1)ncn2-c1ccc(F)c(F)c1,inactive: -6.1%,
Cc1nn(CCCC(=O)NCc2ccc(F)cc2)c(=O)c2c1sc1ccccc12,inactive: 15.4%,
CCOc1ccc(N2CC(c3nc4ccccc4n3Cc3cccc(Cl)c3)CC2=O)cc1 (stereo not given),inactive: -24%,
CCOc1ccc2nc(NC(=O)c3cc(=O)c4ccc(C)cc4o3)sc2c1,inactive: 3.31%,
CCN1CCSc2ccc(C(=O)NC(C)c3ccccc3)cc21 (stereo not given),inactive: -23%,
Cc1cc(C)cc(C(=O)Nc2ccc(-c3nc4ncccc4o3)cc2)c1,inactive: 0.848%,
Cc1c2cnn(CC(=O)N3CCN(c4ccc(F)cc4)CC3)c(=O)c2c(C)n1Cc1ccc(F)cc1,inactive: -21.3%,
Cc1ccc(CNC(=O)Cn2nc(C)n3cccc3c2=O)cc1,inactive: 1.6%,
Cc1ccc(-n2ncc(C(=O)N3CCN(c4cccc(C)c4)C(C)C3)c2C2CCN(C(=O)OC(C)(C)C)CC2)cc1 (stereo not given),inactive: -12.6%,
COc1c(C)cc(S(=O)(=O)NCCc2c(C)[nH]c3ccccc23)c(C)c1C,inactive: -3.45%,
Cc1ccc(Cl)cc1Nc1nc2ccccc2n2c(C)nnc12,inactive: -3.81%,
CCCOc1ccccc1Cn1c(=O)sc2ccccc21,inactive: 6.46%,
N#Cc1ccc(-c2cccs2)nc1SCc1ccc(Cl)cc1Cl,inactive: -0.633%,
CCOc1ccc(NC(=O)N2CCOc3ccccc32)cc1,inactive: -2.61%,
CCc1ccccc1NC(=O)CSc1nnc(-c2nonc2NC(C)=O)n1C,inactive: -11.3%,
Cc1[nH]c(=O)[nH]c(=O)c1C1N2CC3(C(C)C)CN1CC(C(C)C)(C2)C3=O (stereo not given),inactive: 1.44%,
CCOC(=O)c1ccc(NC(=O)CN2C(=O)c3cccnc3Oc3ccc(Cl)cc32)cc1,inactive: -3.61%,
Cc1ccc(N2CCn3c2nc2c3c(=O)n(CCc3ccccc3)c(=O)n2C)cc1C,inactive: 12.7%,
Cc1cc(NS(=O)(=O)c2ccc(NC(=O)COc3ccc(Br)cc3C)cc2)no1,inactive: -0.26%,
CCCCc1nn2c(=O)cc(COC(=O)c3ccccc3NC(=O)C(C)(C)C)nc2s1,inactive: -1.45%,
COc1ccc(C(=O)Nc2ccc3nc4n(c(=O)c3c2)CCCCC4)cc1OC,inactive: 2.62%,
Cc1ccc(Cl)cc1NC(=O)Cn1nc2c(cc1=O)CC(C)CC2 (stereo not given),inactive: 9.66%,
CCOc1ccc(NC(=O)CN2C(=O)COc3ccc(S(=O)(=O)Nc4ccccc4)cc32)cc1,inactive: 4.1%,
